This is one part of the list. The energies were worked out here from pooled read counts, against the library average; single values are noisy.

In the assay the target is T1, Pho4 (S. cerevisiae) (UniProt P07270).
T1 sequence: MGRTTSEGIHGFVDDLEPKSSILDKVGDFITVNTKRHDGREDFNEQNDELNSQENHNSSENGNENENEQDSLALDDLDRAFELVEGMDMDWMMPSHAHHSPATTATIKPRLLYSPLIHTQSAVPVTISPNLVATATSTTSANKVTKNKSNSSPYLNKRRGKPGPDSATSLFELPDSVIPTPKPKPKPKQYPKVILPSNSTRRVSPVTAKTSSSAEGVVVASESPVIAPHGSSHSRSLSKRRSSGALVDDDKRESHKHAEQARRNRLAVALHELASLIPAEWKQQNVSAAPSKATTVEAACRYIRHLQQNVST
Nature of the assay: relative binding free energy (BET-seq); higher = weaker binding. The following applies: reference: library average.
Regarding TGTTACACGTGCAAGG, the “relative binding free energy” value was determined as 0.23 kcal/mol.
Take GTGGGCACGTGACTGT: the “relative binding free energy” value came to 0.06 kcal/mol.
Turning to ATGTTCACGTGGTATT, the “relative binding free energy” value is 0.1 kcal/mol.
The result for CATAACACGTGTTGGT reads -0.04 kcal/mol; that for ATGGCCACGTGTGGTT, -0.04 kcal/mol.
The result for GGTGGCACGTGTTCGA reads -0.18 kcal/mol; that for AATGGCACGTGGTTTT, -0.08 kcal/mol; that for GTATGCACGTGATGCT, 0.16 kcal/mol.
Regarding TGTTGCACGTGTGGCA, the “relative binding free energy” value worked out at 0.07 kcal/mol.
With ATGTTCACGTGCTAAT the figure was 0.28 kcal/mol; with TTTCTCACGTGTCGGG, 0.4 kcal/mol.
With GCTGTCACGTGATGTG the figure was 0.22 kcal/mol; with GAGTGCACGTGTTGGA, 0 kcal/mol.
The result for TTAATCACGTGTATCG reads 0.06 kcal/mol.
As to GCGGTCACGTGGGGCT, the “relative binding free energy” value stood at 0.03 kcal/mol.
On to TGGTGCACGTGAGTCT, for which the “relative binding free energy” value turned out to be 0.1 kcal/mol.
The result for CATTGCACGTGATTGT reads 0.13 kcal/mol; that for GGGCGCACGTGAATGT, 0.08 kcal/mol; that for TTCCGCACGTGGGTTT, -0.22 kcal/mol.
With TATTTCACGTGCCGGG the figure was 0.36 kcal/mol; with GAATTCACGTGATTGG, 0.29 kcal/mol.
The result for ATTTACACGTGACTGG reads 0.3 kcal/mol.
GGGTGCACGTGAGTAC: the “relative binding free energy” value came out at 0.15 kcal/mol.
For the sequence GTTTACACGTGGTCAA, the “relative binding free energy” value came out at 0.06 kcal/mol.
On to GCTTGCACGTGGCTCG, for which the “relative binding free energy” value was 0.12 kcal/mol.
In the case of TTTTGCACGTGTGTCC, the “relative binding free energy” value worked out at 0.14 kcal/mol.
For the sequence TTTGTCACGTGGGACG, the “relative binding free energy” value stood at 0.11 kcal/mol.
Consider TGTATCACGTGATTTA, for which the “relative binding free energy” value was found to be 0.26 kcal/mol.
As to TATTGCACGTGGCTAT, the “relative binding free energy” value is -0.22 kcal/mol.
The result for GTGCGCACGTGTGGAG reads -0.09 kcal/mol; that for ATGCGCACGTGCGTGT, -0.21 kcal/mol; that for CGAGGCACGTGTCGTG, -0.07 kcal/mol.
Take AAGGGCACGTGGACGG: the “relative binding free energy” value is -0.19 kcal/mol.
With GTGTGCACGTGGATTG the figure was -0.12 kcal/mol; with AGATGCACGTGATTAG, 0.07 kcal/mol; with GATGACACGTGTTAAG, 0.15 kcal/mol.
TATTTCACGTGAGCTT: the “relative binding free energy” value turned out to be 0.41 kcal/mol.
With TTAGGCACGTGGCCTT the figure was -0.21 kcal/mol; with AGGAGCACGTGCTGTA, -0.21 kcal/mol.
With GGGATCACGTGGCTGT the figure was 0.14 kcal/mol; with TGGGTCACGTGGCGGT, -0.03 kcal/mol; with CGTGACACGTGTGAAG, 0.11 kcal/mol.
For TTTGACACGTGGGGTT, the “relative binding free energy” value is -0.06 kcal/mol.
TGGGGCACGTGTTAAG: the “relative binding free energy” value was -0.06 kcal/mol.
With CTGTGCACGTGGGTCA the figure was -0.2 kcal/mol; with TAGATCACGTGTTTGA, 0.11 kcal/mol; with TCTGACACGTGGGGGA, -0.02 kcal/mol.
As for TCTGTCACGTGTCGGG, the “relative binding free energy” value worked out at 0.04 kcal/mol.
The result for CTATGCACGTGTGTAG reads -0.17 kcal/mol.
The result for CGAAGCACGTGGTGTG reads -0.27 kcal/mol.
With GGGGACACGTGTTATG the figure was 0.03 kcal/mol.
For the sequence TTTGCCACGTGGGGGA, the “relative binding free energy” value is -0.15 kcal/mol.
With TTGCTCACGTGTGGCA the figure was 0.18 kcal/mol.
The result for GTGTTCACGTGTTCAG reads 0.43 kcal/mol.
Consider GGTACCACGTGGGGAT, for which the “relative binding free energy” value is -0.06 kcal/mol.
As for GTTGACACGTGACGTT, the “relative binding free energy” value came to 0.04 kcal/mol.
GGTTGCACGTGAGAAG: the “relative binding free energy” value worked out at 0.12 kcal/mol.
With GATGTCACGTGTGAAG the figure was 0.17 kcal/mol; with GCGTACACGTGTGGGC, 0.14 kcal/mol.
With TGTTCCACGTGGTATT, the “relative binding free energy” value is -0.2 kcal/mol.
Consider TATCGCACGTGGGGAT, for which the “relative binding free energy” value was -0.12 kcal/mol.
With TATCGCACGTGTTGTA the figure was 0.03 kcal/mol.
For TGGGGCACGTGGTTAC, the “relative binding free energy” value is -0.13 kcal/mol.
Regarding GCCGTCACGTGTTTGT, the “relative binding free energy” value amounted to 0.34 kcal/mol.
The result for GGTTACACGTGGCAAG reads 0.17 kcal/mol.
On to GTGTTCACGTGGGAAC, for which the “relative binding free energy” value stood at 0.34 kcal/mol.
The result for ATAGGCACGTGGAGGA reads -0.13 kcal/mol; that for ATGGTCACGTGCCGGT, -0.04 kcal/mol.
With TGGTACACGTGCTGTA the figure was -0.01 kcal/mol; with TGTTACACGTGGGTTT, 0.03 kcal/mol.
Consider CTGTTCACGTGGGTAG, for which the “relative binding free energy” value worked out at 0.15 kcal/mol.
Consider CATGGCACGTGTTGGT, for which the “relative binding free energy” value came to 0.03 kcal/mol.
In the case of GTGGGCACGTGAAGAC, the “relative binding free energy” value worked out at 0.26 kcal/mol.
With TTAATCACGTGGGTGA the figure was -0.01 kcal/mol; with TTGGACACGTGTCAGG, 0.1 kcal/mol; with TTTTGCACGTGAATTT, 0.33 kcal/mol.
For TATGTCACGTGAGATT, the “relative binding free energy” value was found to be 0.43 kcal/mol.
With TTTTTCACGTGTCCTT the figure was 0.16 kcal/mol.
On to GGTTCCACGTGAGAGG, for which the “relative binding free energy” value worked out at 0.43 kcal/mol.
Consider TGGCACACGTGATGGT, for which the “relative binding free energy” value stood at 0.13 kcal/mol.
CTTGTCACGTGATGGG: the “relative binding free energy” value came out at 0.07 kcal/mol.
The result for TTCGACACGTGGGGTC reads -0.09 kcal/mol; that for GGATGCACGTGTAAAA, 0.2 kcal/mol; that for CATTTCACGTGGGGCG, 0.16 kcal/mol.
As to TGGGGCACGTGAGTGA, the “relative binding free energy” value came to 0.08 kcal/mol.
With GGGGTCACGTGAACTT the figure was 0.29 kcal/mol.
As to TTGATCACGTGGGCAA, the “relative binding free energy” value is -0.07 kcal/mol.
With TGTGCCACGTGTGAGC, the “relative binding free energy” value is -0.01 kcal/mol.
With GATGCCACGTGTTGTA the figure was 0.01 kcal/mol.
With GTTTTCACGTGCCTGT the figure was 0.22 kcal/mol; with AGGCTCACGTGAAGGG, 0.24 kcal/mol; with TGTGTCACGTGCAAGG, -0.12 kcal/mol.
With GGTCACACGTGGTCGT the figure was 0.19 kcal/mol; with GTTTACACGTGTACGT, 0.21 kcal/mol; with AAGTACACGTGTGTGC, 0.07 kcal/mol.
As to TTGTTCACGTGCTGCT, the “relative binding free energy” value was found to be 0.18 kcal/mol.
With TGTGACACGTGCGTGT the figure was -0.08 kcal/mol; with GAAATCACGTGAGGGG, 0.32 kcal/mol.
With CGTATCACGTGGTTAT the figure was 0.1 kcal/mol; with AATTTCACGTGGCTAT, 0.27 kcal/mol; with TACATCACGTGTAGTT, 0.18 kcal/mol.
Regarding AGGCGCACGTGGGTCA, the “relative binding free energy” value is -0.27 kcal/mol.
For GGTAGCACGTGTTAGG, the “relative binding free energy” value came to 0.07 kcal/mol.
As for CTAGGCACGTGCTTGG, the “relative binding free energy” value is -0.29 kcal/mol.
As to AGGCGCACGTGTGGCG, the “relative binding free energy” value is -0.07 kcal/mol.
With ATATTCACGTGGTGTC the figure was 0.06 kcal/mol; with AGCTGCACGTGTGGAG, 0 kcal/mol.
With TTGTACACGTGAGCGT the figure was 0.15 kcal/mol; with TAAATCACGTGAGAGG, 0.37 kcal/mol; with GGTGGCACGTGAAGGT, 0.27 kcal/mol.
The result for TATGACACGTGTTTTG reads 0.07 kcal/mol; that for GTCAGCACGTGTTGTA, 0.09 kcal/mol.
As for CGGGTCACGTGCGTGG, the “relative binding free energy” value worked out at 0.03 kcal/mol.
For the sequence GGGGTCACGTGTCTTC, the “relative binding free energy” value is 0.17 kcal/mol.
The result for TAGAGCACGTGGTGCA reads -0.26 kcal/mol.

The record behind these values is the BET-seq Pho4 binding data (Le et al. 2018).
